Reference: PMC4336329 (PLoS ONE, 2015)
About 14,000 (4.5%) of roughly 310,000 compounds showed an effect of 50% or more. The effect is printed as a negative number. The list shows a part of the results.

What follows are compounds tested against human ether-à-go-go-related gene (hERG) potassium channel (human, UniProt Q12809) (assay: primary screen, population patch clamp on CHO cells stably expressing hERG).
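Further: peak tail current of the secondary pulse compared with the same well before compound.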

Chain of human ether-à-go-go-related gene (hERG) potassium channel (Q12809 whole entry, looked up): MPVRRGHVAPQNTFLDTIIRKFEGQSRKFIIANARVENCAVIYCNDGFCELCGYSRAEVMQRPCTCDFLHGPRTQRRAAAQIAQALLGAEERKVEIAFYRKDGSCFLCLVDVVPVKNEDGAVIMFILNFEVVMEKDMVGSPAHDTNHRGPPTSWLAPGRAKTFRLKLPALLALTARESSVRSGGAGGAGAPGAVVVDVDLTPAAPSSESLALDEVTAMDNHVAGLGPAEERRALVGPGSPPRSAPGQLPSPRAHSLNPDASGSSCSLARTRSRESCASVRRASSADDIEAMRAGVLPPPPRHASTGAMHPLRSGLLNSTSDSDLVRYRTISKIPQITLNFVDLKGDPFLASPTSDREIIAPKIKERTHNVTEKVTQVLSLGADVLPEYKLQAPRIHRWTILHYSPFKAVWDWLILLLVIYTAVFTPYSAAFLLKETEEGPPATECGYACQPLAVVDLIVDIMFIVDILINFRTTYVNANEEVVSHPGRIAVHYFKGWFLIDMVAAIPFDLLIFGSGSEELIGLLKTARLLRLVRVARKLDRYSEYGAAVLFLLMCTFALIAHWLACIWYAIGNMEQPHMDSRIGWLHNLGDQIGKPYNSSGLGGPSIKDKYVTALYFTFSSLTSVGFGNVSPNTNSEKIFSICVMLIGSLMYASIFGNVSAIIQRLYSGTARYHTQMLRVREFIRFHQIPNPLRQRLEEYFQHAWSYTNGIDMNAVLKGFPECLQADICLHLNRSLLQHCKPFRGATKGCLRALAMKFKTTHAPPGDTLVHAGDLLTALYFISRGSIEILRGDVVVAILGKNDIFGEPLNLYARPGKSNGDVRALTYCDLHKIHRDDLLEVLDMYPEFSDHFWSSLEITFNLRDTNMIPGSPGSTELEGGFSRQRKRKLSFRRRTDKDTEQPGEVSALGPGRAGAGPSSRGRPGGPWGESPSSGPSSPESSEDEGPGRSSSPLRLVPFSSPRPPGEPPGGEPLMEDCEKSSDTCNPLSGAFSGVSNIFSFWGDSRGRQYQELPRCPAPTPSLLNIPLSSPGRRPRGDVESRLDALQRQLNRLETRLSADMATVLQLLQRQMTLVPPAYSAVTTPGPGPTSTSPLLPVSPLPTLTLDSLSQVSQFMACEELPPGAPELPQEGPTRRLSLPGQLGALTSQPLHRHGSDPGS

Row | SMILES | hERG current change (%, negative = inhibition) at 10uM [%]
1 | COc1ccc(-c2nnc(SCC(=O)N3CCCCC3)o2)c(OC)c1 | 6.16
2 | Cc1cc(C)cc(OCc2nnc(SCC(=O)N3CCN(c4ccccc4)CC3)o2)c1 | 6.09
3 | Br.COc1ccc(-n2cc(-c3ccc(Cl)cc3)[nH]c2=S)cc1 | 9.57
4 | Cc1c(Cl)cccc1NC(=O)CNCc1ccccc1F.O=C(O)C(=O)O | 25.1
5 | Cc1cccc(C(=O)NC(=S)Nc2ccc3[nH]c(=O)[nH]c3c2)c1 | 15.6
6 | OCC[C@@H]1C[C@@H](O)[C@H](O)[C@]2(Cc3ccccc3CCO2)O1 | 20.3
7 | CCOc1cc(/C=N\NC(=O)c2ccc(C)nc2)cc([N+](=O)[O-])c1O | 3.3
8 | O=C(NCCNS(=O)(=O)c1ccccc1)c1ccc([N+](=O)[O-])cc1 | -12
9 | O=C(Cc1cccs1)NCc1cccc(CNC(=O)Cc2cccs2)c1 | 17.9
10 | O=C(CN1CCOCCOCCN(CC(=O)Nc2ccccc2)CCOCC1)Nc1ccccc1 | -12.6
11 | O=C(Nc1nnc(C2CCCC2)s1)C1CCN(S(=O)(=O)c2ccc(Cl)cc2)CC1 | 13.8
12 | COc1ccc(OC)c(Nc2nc(-c3ccccc3O)nc3ccccc23)c1 | 18.7
13 | Cc1nn(-c2ccccc2)c(Cl)c1CN(C(=O)CCl)c1ccc(Cl)cc1 | -8.59
14 | COC(=O)c1c(NC(=O)c2ccc(C)c(S(=O)(=O)Nc3ccccc3C)c2)sc2c1CCCC2 | -2.89
15 | COc1ccc(C(=O)NCC2CCCN2S(=O)(=O)c2cccs2)cc1 (stereo not shown) | -2.74
16 | CC(C)CNS(=O)(=O)c1ccc(OCC(=O)NCc2ccco2)cc1 | -11.6
17 | CCC1(C)Cc2c(sc3nc(NN)n(C)c(=O)c23)CO1 (stereo not shown) | 13.4
18 | O=C(CSc1ccc(-c2ccc(Br)cc2)nn1)N1CCOCC1 | -18.7
19 | COc1ccc(/C=C2/S/C(=N/S(=O)(=O)Cc3ccccc3)NC2=O)cc1OC | -11
20 | CC(C)CN1CCN(Cc2ccc3ncccc3c2)CC1CCO (stereo not shown) | -13.2
21 | CCN1C(=O)C(=Cc2ccc(C)s2)C(=O)N(CC)C1=S | 5.09
22 | Cc1ccc(-c2nc(C3CCCN(S(=O)(=O)c4ccc(C(F)(F)F)cc4)C3)no2)cc1 (stereo not shown) | 15

Row | SMILES | hERG current change (%, negative = inhibition) at 10uM [%]
23 | CCCc1ccc2oc(C(=O)N3CCN(CCC(N)=O)CC3)c(C)c2c1 | -20.7
24 | COc1cc(C(=O)NNC(=S)NCc2ccco2)cc(OC)c1OC | 15.9
25 | CN1C2C=C(N(CCc3c[nH]c4ccccc34)C(=O)c3ccc(Cl)cc3)CC1CC2.Cl (stereo not shown) | -67
26 | CCOC(=O)c1c(C)[nH]c(C)c1C(=O)CSc1nc2ccccc2n1CCOC | -2.35
27 | Cc1cc(C)cc(N(C(C)C(=O)NC2CCCC2)S(C)(=O)=O)c1 (stereo not shown) | 9.47
28 | COC(=O)C1CSC(C(=O)OC)N1C(=O)CN1CC(C)OC(C)C1 (stereo not shown) | -3.54
29 | CC#CC(=O)NCC1(N(C)Cc2ccccc2)Cc2ccccc2C1 | -10.1
30 | COc1ccccc1CC(=O)NC1CC(C)(C)NC(C)(C)C1.Cl | -10.2
31 | Cn1cc(CNC(=O)c2ccc3nc(Cc4ccccc4F)oc3c2)cn1 | 10
32 | CCOc1ccccc1C(=O)N1c2ccccc2Sc2ccccc21 | 0.756
33 | O=C(c1cc(-c2ccc(Cl)cc2)on1)N1CCN(c2ccc(F)cc2)CC1 | 21.5
34 | Cc1ccc2nc(SCC(=O)N3c4ccccc4CC3C)c(C)cc2c1 (stereo not shown) | 7.54
35 | CCCS(=O)(=O)c1nc(S(=O)(=O)c2ccc(C)cc2)c(NCCN2CCOCC2)s1 | -18.3
36 | NS(=O)(=O)c1ccc(CCNC(=O)CSc2nnc3ccccn23)cc1 | 37.8
37 | Cc1cc(C)cc(Nc2ccc(C(=O)O)cc2N)c1 | 14.6
38 | COc1ccc(NC(=O)CSc2nnc(-c3ccc(C)cc3)n2N)cc1 | 4.62
39 | CN(C)C/C(Cl)=C(\Cl)c1ccccc1 | 11.1
40 | CCCCn1c2ccc(F)cc2c2nnc(SCCN3CCOCC3)nc21 | -55.4
41 | CCc1nc2cccnc2n1-c1ccc(C(=O)O)cc1 | 5.08
42 | Cc1cc(OCC(=O)N2CCN(c3cccc(Cl)c3)CC2)c2c(C)c(C)c(=O)oc2c1 | 8.83
43 | CCOc1ccc(-c2nnc(SCC(=O)N3CCNC3=O)o2)cc1 | 18.7
44 | CC(NS(=O)(=O)c1ccc(CCC(=O)NCC2CCCO2)cc1)c1ccccc1 (stereo not shown) | 15.5

Row | SMILES | hERG current change (%, negative = inhibition) at 10uM [%]
45 | COc1cc(C(=O)Nc2ccccc2N2CCOCC2)ccc1OCc1c(C)noc1C | -28.8
46 | O=C(CCNC(=O)C1CCN(S(=O)(=O)c2ccc(F)cc2)CC1)NCc1ccccc1 | 2.4
47 | O=C(O)c1ccc(C[n+]2c(-c3ccccc3)csc2Nc2ccccc2)cc1.[Br-] | 5.57
48 | COc1cccc(CN2CC(C(=O)N3CCCC3)CCC2=O)c1 (stereo not shown) | 19.4
49 | CC(C)Sc1nc(N)nc(-c2cccs2)c1C#N | 1.2
50 | O=C(NCc1ccccc1)c1ccc(N2CCC3(CC2)CC(c2ccc(Cl)cc2)=NO3)c([N+](=O)[O-])c1 | 11.6
51 | O=C1NC2(CCCc3ccccc32)C(=O)N1Cc1nnc(-c2ccccc2Br)o1 (stereo not shown) | -4.24
52 | Cc1ccccc1NC(=O)C1C2CC/C=C\CCC21 (stereo not shown) | 34
53 | COc1ccc(-c2nn(-c3ccccc3)cc2/C=C(\CC(=O)O)c2nc3ccccc3s2)cc1OC | 23.6
54 | Cc1occc1-c1nnc(SCC(=O)Nc2ccccn2)o1 | 7.09
55 | N#Cc1c(-n2cccc2/C=N/O)sc2c1CCCC2 | -31.2
56 | CC(C)c1ccc(NC(=O)C2CCCCN2S(=O)(=O)c2ccccc2)cc1 (stereo not shown) | -18
57 | O=S(=O)(NCc1ccccn1)c1cccc2nsnc12 | 7.17
58 | CCOC(=O)c1c(N)sc(C(=O)N2CCCC(C(N)=O)C2)c1C (stereo not shown) | 12.2
59 | O=C(CCN1C(=O)c2ccccc2C1=O)NCCN1CCOCC1 | 20.1
60 | CCc1ccc(CCOc2ccc(CC3SC(=O)NC3=O)cc2)nc1.Cl (stereo not shown) | 4.26
61 | CC(C)Oc1ccc(CCc2n[nH]c(=S)n2-c2ccccc2)cc1 | 10.8
62 | COc1ccc(NC(=O)c2cc(-c3ccc(OC)c(OC)c3)on2)cc1OC | 5.03
63 | COC(=O)NCC(c1ccc2c(c1)OCO2)N1CCN(c2ccccc2)CC1 (stereo not shown) | -14.9
64 | O=C1OC(N2C(=O)CC[C@H]2C(=O)Nc2cccc(F)c2)c2ccccc21 (stereo partly shown) | 9.13
65 | CSc1nc(Oc2ccc(=O)[nH]n2)nc(N(C)C)n1 | 12.9
66 | CCCc1ccc(C(=O)COC(=O)CN2C(=O)NC3(CCCCC3C)C2=O)cc1 (stereo not shown) | 3.91

Row | SMILES | hERG current change (%, negative = inhibition) at 10uM [%]
67 | O=C(O)CC/C(=C\c1cc2c(cc1Br)OCO2)c1nc2ccccc2s1 | 16.5
68 | CC1CCN(c2nc3ccc(C(=O)O)cc3s2)CC1 | 22.8
69 | CCOC(=O)C1CCCN(CC(=O)Nc2c(F)c(F)c(F)c(F)c2F)C1 (stereo not shown) | -6.2
70 | COCCCNCCOc1ccc(C)cc1[N+](=O)[O-].O=C(O)C(=O)O | -18.7
71 | O=C(CNc1cccc(S(=O)(=O)N2CCCCC2)c1)Nc1cccc(F)c1 | -9.9
72 | CCc1ccc(NC(=S)N(CCN2CCOCC2)Cc2ccccc2F)cc1 | -24.5
73 | COc1cc(/C=N/NC(=O)c2ccc(Cl)c(S(N)(=O)=O)c2)ccc1OCC(N)=O | 9.92
74 | COc1cccc(/C=C2\N=C3CCCCCN3C2=O)c1 | 1.51
75 | O=C(NCc1ccco1)c1nc(-c2ccc(F)cc2)no1 | -13.3
76 | Cc1cc(C(=O)O)c(C)n1-c1ccccc1 | 2.95
77 | CCC(C(=O)OCC(=O)Nc1c(Cl)cccc1Cl)c1ccccc1 (stereo not shown) | 6.64
78 | COC(=O)c1ccc(CNC(=O)c2ccc3oc(C(C)C)nc3c2)cc1 | 17.8
79 | CC(C)CNC(=O)COC(=O)c1cc(Cl)cc(Cl)c1N | -11.3
80 | Cc1ccccc1C(=O)NNC1=NCCC1 | -0.11
81 | CCCN(CCC)C(=O)CSc1nc2ccccc2c(=O)n1CC1COc2ccccc2O1 (stereo not shown) | -19
82 | CCOc1cc(N2CCOCC2)c(OCC)cc1NC(=O)c1ccc(S(C)(=O)=O)cc1 | 9.89
83 | CCC(=O)Nc1nc2ccccc2n1CCN(CC)CC | -14.1
84 | Cc1[nH]c2c(Cl)cccc2c(=O)c1CN1CCCCCC1 | -32.7
85 | CC(NC(=O)c1cccc(S(=O)(=O)N2CCc3ccccc32)c1)c1ccco1 (stereo not shown) | -48
86 | O=C(CCc1nnc2ccc(NCc3ccco3)nn12)N1CCN(c2ccccc2)CC1 | -56.3
87 | Cn1c(-c2ccc3c(c2)OCO3)cnc1NCc1ccccc1.O=C(O)C(=O)O | -60
88 | COc1ccccc1/C=N/NC(=O)c1cccc(NC(=O)c2ccccc2Cl)c1 | -8.31
